# Data: publication PMC4336329 (PLoS ONE, 2015)
# The whole screen tested about 310,000 compounds, of which about 14,000 (4.5%) showed an effect of 50% or more. Effects have a minus sign here. The list shows a part of the results.
# Biological target: human ether-à-go-go-related gene (hERG) potassium channel (human, UniProt Q12809)
# Assay: primary screen, population patch clamp on CHO cells stably expressing hERG
# 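Also: peak tail current of the secondary pulse compared with the same well before compound.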
# Sequence of human ether-à-go-go-related gene (hERG) potassium channel (Q12809 whole entry, looked up): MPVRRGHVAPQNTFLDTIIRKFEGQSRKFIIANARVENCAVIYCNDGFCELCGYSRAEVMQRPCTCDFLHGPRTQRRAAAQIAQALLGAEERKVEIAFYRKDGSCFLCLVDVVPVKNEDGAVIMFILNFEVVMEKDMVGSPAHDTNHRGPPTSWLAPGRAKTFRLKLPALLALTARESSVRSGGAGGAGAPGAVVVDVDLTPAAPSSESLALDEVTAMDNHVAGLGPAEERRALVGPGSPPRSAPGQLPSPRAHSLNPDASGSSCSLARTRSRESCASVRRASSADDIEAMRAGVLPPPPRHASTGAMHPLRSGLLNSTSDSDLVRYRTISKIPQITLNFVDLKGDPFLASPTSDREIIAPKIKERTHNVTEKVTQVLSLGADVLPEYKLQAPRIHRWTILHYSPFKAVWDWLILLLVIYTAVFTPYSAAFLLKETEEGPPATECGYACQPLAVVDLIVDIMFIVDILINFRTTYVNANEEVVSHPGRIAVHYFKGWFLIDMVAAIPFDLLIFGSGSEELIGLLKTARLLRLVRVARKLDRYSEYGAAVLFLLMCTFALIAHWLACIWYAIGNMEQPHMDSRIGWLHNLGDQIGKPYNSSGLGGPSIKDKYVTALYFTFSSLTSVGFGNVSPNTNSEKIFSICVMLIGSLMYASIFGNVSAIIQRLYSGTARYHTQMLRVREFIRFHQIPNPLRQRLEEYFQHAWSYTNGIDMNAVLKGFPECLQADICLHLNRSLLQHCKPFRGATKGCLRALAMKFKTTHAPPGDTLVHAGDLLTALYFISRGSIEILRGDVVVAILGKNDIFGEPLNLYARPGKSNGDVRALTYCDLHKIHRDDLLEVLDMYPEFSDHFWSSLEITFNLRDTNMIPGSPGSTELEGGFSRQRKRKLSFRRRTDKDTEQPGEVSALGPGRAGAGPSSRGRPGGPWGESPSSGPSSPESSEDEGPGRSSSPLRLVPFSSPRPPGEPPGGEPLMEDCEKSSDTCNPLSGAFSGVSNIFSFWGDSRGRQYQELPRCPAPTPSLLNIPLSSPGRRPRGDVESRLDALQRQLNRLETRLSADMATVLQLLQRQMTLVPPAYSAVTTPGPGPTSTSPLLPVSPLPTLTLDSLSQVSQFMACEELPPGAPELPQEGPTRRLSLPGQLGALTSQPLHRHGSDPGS
row,SMILES,"hERG current change (%, negative = inhibition) at 10uM [%]"
1,O=C(O)C(c1ccccc1)N1C(=O)/C(=C\c2ccc(-c3ccccc3Cl)o2)SC1=S (stereo not drawn),11.1
2,COCCCNS(=O)(=O)c1ccc(Cl)c(C(F)(F)F)c1,-8.69
3,CCCn1c(SCC(=O)Nc2cccc(S(=O)(=O)N(C)C)c2)nc2ccccc2c1=O,-39.3
4,CC(C)c1ccc(NC(=O)C(c2ccc3c(c2)OCO3)N2CCN(C(=O)c3ccco3)CC2)cc1 (stereo not drawn),-25
5,O=C(Cc1ccc(Cl)cc1Cl)Nc1ccc(OC(F)F)c(Cl)c1,8
6,CCCCCCCCN=C1NC(=O)CS1,-3.06
7,Cc1cc(C)c(C#N)c(SCC(=O)OC2CCCCC2)n1,9.27
8,CC(=O)c1ccc(N2CCN(C(=O)c3ccc4ccccc4n3)CC2)cc1,-43.1
9,COC(=O)C(O)(c1ccc(NC(=O)c2ccco2)c(OC)c1)C(F)(F)F (stereo not drawn),-6.24
10,O=C(NCCc1csc(-c2cccnc2)n1)c1cccc2ccccc12,-14.9
11,O=C(N/N=C(\c1ccccc1)c1cccnc1)C(O)(c1ccccc1)c1ccccc1,-46.6
12,O=C(Nc1nccs1)C1CCN(S(=O)(=O)c2cccnc2)CC1,-8.55
13,Cc1ccccc1CCNC(=O)C1CCCN(c2cnccn2)C1 (stereo not drawn),-0.76
14,O=C(OCCN1C(=O)c2ccccc2C1=O)c1cc(S(=O)(=O)N2CCOCC2)ccc1Cl,-22.5
15,CN(C)N=Nc1ccc(S(=O)(=O)/N=C(\[O-])c2ccccc2)cc1.[K+],14.6
16,COc1ccc(/C=C2\CCCC3C2=NN(C(=O)c2scnc2C)C3c2ccc(OC)c(OC)c2)cc1OC (stereo not drawn),10.6
17,N#Cc1ccccc1NC(=O)CNc1ccc(Cl)c(C(F)(F)F)c1,-5.09
18,N#Cc1c(NC(=O)CSc2n[nH]c(N)n2)oc(-c2ccccc2)c1-c1ccccc1,-12.7
19,O=C1Nc2ccc(Cl)cc2C(=O)C1(F)c1ccccc1 (stereo not drawn),-4.92
20,C=CCOc1ccc2oc(=O)cc(C)c2c1,-1.62
21,COc1ccc(CCNC(=O)c2cc(-c3cccs3)on2)cc1OC,-0.839
22,CC(C)N1C(=O)C2C(c3ccccc3O)NC(C)(C(=O)O)C2C1=O (stereo not drawn),-1.22
23,O=C(OCCOc1ccccc1)c1cc(S(=O)(=O)N2CCOCC2)ccc1Cl,-15.6
24,CC(C)OC(=O)CSc1nc2c(c(C3CC=CCC3)c1C#N)CCC2 (stereo not drawn),7.7
25,COc1ccc2cc(C3CC(c4ccco4)=NN3C(=O)CCC(=O)O)c(Cl)nc2c1 (stereo not drawn),18.9
26,Cc1cnc(C(=O)Oc2ccc(-c3ccccc3)cc2)cn1,16.8
27,CC#CCN1c2ccccc2[C@]23C[C@@H](C(=O)OC)N(C(=O)NC(C)(C)C)C2=NC(C(=O)OC)=C(C(=O)OC)[C@H]13,17.3

row,SMILES,"hERG current change (%, negative = inhibition) at 10uM [%]"
1,O=C(Nc1ccc(-c2csc(-c3ccccc3)n2)cc1)c1ccccc1,16.9
2,CCCN1C(=O)C2(OCCO2)c2cc(Cl)ccc21,15.3
3,O=C(COC(=O)/C=C/c1cccc(Br)c1)NC1CC1,-2.84
4,O=C(N/N=C/c1ccc(OC(=O)c2cccc(Br)c2)cc1)c1cccnc1,11.4
5,O=C(CSc1ccc(-c2ccco2)nn1)NCc1ccc(F)cc1,-21.2
6,COc1ccc(CC(=O)Nc2sc(Cc3ccccc3)c(C)c2C(N)=O)cc1,-5.13
7,O=C(NC1CCCCC1)C(c1ccc2ncccc2c1)N(Cc1ccco1)C(=O)c1ccc2c(c1)OCCO2 (stereo not drawn),-45.1
8,Cc1cccc(CC2CC(=O)N(c3nc4ccccc4s3)C2=O)c1 (stereo not drawn),11.4
9,Cc1onc(C(=O)N2CCC(Cc3ccccc3)CC2)c1[N+](=O)[O-],5.61
10,O=c1oc2cc(Oc3ccc(C(F)(F)F)cc3[N+](=O)[O-])ccc2c2c1CCCC2,0.417
11,Cn1cccc1/C=N/NC(=O)c1ccc(OC(F)(F)C(F)F)cc1,-3.78
12,CCOC(=O)N1CCC(N(C(=O)Nc2ccccc2)C(C)CC)CC1 (stereo not drawn),-1.48
13,Cc1n[nH]c(C)c1CN(C)C(=O)C1CCC(=O)N(CC2CCCCC2)C1 (stereo not drawn),2.14
14,O=S(=O)(Nc1ccccn1)c1ccc(Oc2ccccc2)cc1,-37.5
15,CN(C)S(=O)(=O)c1ccc(C(=O)NCc2ccco2)cc1,1.98
16,COCCn1c(=NC(=O)CCS(=O)(=O)c2ccccc2)sc2cc(C(=O)OC)ccc21,14.5
17,CCOc1cccc(C(=O)Nc2nnc(-c3ccco3)s2)c1,-2.82
18,O=c1oc2ccccc2n1Cc1ccccc1F,7.76
19,O=C(CC1C(=O)NCCN1Cc1ccccc1C(F)(F)F)NCCc1ccccn1 (stereo not drawn),9.92
20,CN(c1ccc(C(=O)NCCSC(C)(C)C)cc1)S(C)(=O)=O,5.55
21,COc1ccccc1OC(C)C(=O)NNC(=S)NC1CCCC1 (stereo not drawn),7.59
22,COc1cc(/C=N/N(C)C)cc(Br)c1O.O=P(O)(O)O,22.9
23,CC(=O)Nc1ccc(S(=O)(=O)N(C)CC(=O)N/N=C/c2ccc(C(=O)O)cc2)cc1,23.7
24,Cc1csc(NC(=O)CCc2c(C)nc3cc(-c4cccc(F)c4)nn3c2C)n1,-17.3
25,CNC(=O)c1c(NC(=O)c2cccc(N3C(=O)CCC3=O)c2)sc2c1CCC2,11.4
26,CCOc1ccc(N2C(=O)Nc3ccccc3C2(O)C(=O)NCc2ccc(C)cc2)cc1 (stereo not drawn),19.6
27,CCOC(=O)C(CC(=O)O)=C(c1ccccc1)c1ccccc1,17.9
